Results: patent publication US20250243520A1, “PRODUCTION METHOD FOR L-CYCLIC AMINO ACIDS” (UBE CORPORATION, priority 2019, published 2025)

Substrate: NC(=O)C1=CN([C@@H]2O[C@H](COP(=O)(O)OP(=O)(O)OC[C@H]3O[C@@H](n4cnc5c(N)ncnc54)[C@H](OP(=O)(O)O)[C@@H]3O)[C@@H](O)[C@H]2O)C=CC1
Test: purified protein, by the assay type
Assay type: biochemical, Arabidopsis thaliana
[1] = other: Hanes-Woolf plot, NADPH 10-500 μM, Tris-HCl pH 7.2

B1: Arabidopsis thaliana imino acid (imine) reductase AtP2CR, GST-fused, SEQ ID NO: 8 (AtP2CR: SEQ ID NO: 2) (Arabidopsis thaliana) (protein)
chain: [sequence of about 200 residues not given]SDLVPRGSPEFMAALPVFIPAESFPSILSHETLINHFRTNLPKHSSTITSPVRQNYTVSSPSSLLLMPSWSSSSSLPYMGVKLVTYFPHNSSQNLPGIHGSYTLFSSTTGQTLATMDGTVLTLYRTSSVSGLGSKILARDDSQVLIMVGSGALAPHLIKSHLAARPSLRRVIIWNRTPQRAQELAETLSKDPQHKEISFDSHDSLDQIIPLGDIISCATNSTVPLVKGEFLKPGTHLDLAGSFSHEMKECDDNAIQRGSVFVDNDTAMIEAGELAGAFERGVIKREDICGNLVELIKGDKEGRKSSTDITVFKSVGSGTVDLLTAQLVHETYLSRC
notes: pGEX-4T-1), expressed in E. coli, GST-purified
- Km [1]: 33.42 µM
- Vmax [1]: 208.73 nmol/min/mg
- Km (other: Table 5, values determined by ANEMONA, GST-fused protein, pH 7.2): 34.3 µM
